# Laboratory results: publication PMC6919601, “Identification of Plasmodium dipeptidyl aminopeptidase allosteric inhibitors by high throughput screening” (PLoS ONE, 2019)
# Out of some 110,000 compounds screened, about 230 (0.21%) showed an effect of 50% or more. Some of the results follow.
# Target: DPAP1 (Plasmodium falciparum, UniProt Q8IIJ9)
# Assay: primary screen, percent inhibition; read by cleavage of a fluorogenic dipeptide substrate; higher = more effect of the substance
# Design: species or system P. falciparum D10 trophozoite lysates; single well
# 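Further: 30 min substrate incubation versus DMSO and 10 µM JCP410 controls.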
# Sequence of DPAP1 (Q8IIJ9 whole entry, looked up): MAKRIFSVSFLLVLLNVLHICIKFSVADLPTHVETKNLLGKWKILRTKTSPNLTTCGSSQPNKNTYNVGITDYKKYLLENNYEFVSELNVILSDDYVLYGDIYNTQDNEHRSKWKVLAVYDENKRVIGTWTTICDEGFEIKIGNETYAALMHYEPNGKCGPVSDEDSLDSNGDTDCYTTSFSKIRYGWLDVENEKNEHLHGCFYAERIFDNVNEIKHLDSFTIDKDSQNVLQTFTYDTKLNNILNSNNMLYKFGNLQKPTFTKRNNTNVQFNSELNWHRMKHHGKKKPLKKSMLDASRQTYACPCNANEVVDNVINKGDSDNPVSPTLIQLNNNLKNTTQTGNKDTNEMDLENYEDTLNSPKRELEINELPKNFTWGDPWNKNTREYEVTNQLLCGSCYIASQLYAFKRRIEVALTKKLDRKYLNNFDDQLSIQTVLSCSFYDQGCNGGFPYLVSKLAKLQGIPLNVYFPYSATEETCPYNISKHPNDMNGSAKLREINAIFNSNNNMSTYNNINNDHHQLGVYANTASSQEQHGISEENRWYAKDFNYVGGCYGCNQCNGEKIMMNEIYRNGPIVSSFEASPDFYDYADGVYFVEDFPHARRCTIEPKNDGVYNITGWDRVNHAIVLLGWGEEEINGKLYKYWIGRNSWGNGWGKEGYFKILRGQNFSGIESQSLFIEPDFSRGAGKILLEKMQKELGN
row,SMILES,% Inhibition @ 10 uM [%]
1,O=C(NCc1cccc(CNC(=O)c2cccnc2)c1)c1cccnc1,2.03
2,Cc1ccc(C)n1-c1ccc(C(=O)N2CCN(c3ccc(N4CCOCC4)nn3)CC2)cc1,-1.7
3,COc1ccc(C(NS(=O)(=O)c2ccc3ccccc3c2)c2ccccc2)cc1 (centres unmarked),2.7
4,CC(=O)C1=C(Nc2ccc(C)cc2)CC(C)(O)C(C(C)=O)C1c1ccccc1 (centres unmarked),0.266
5,Cc1ccc(-c2onc(C)c2C)cc1S(=O)(=O)N1CCC2(CC1)OCCO2,-6.86
6,Cc1ccc(S(=O)(=O)N2CCN(C(=O)CN3CCCCC3)C2)cc1,-2.8
7,Oc1ncnc2c1cnn2-c1cccc(Cl)c1,0.177
8,O=C(CC1NC2CCCCC2NC1=O)Nc1ccccc1 (centres unmarked),2.13
9,CC(C)(C)c1cc(N)n(-c2ccc(C(=O)O)cc2)n1,0.0539
10,CCCc1cc(O)nc(SCC(=O)Nc2ccc(OCC)cc2)n1,-0.865
11,COc1cc2c(cc1OC)CN(C(=O)C(F)(F)F)CC2,-2.75
12,CCN(CC)c1nc2ccccc2c(O)c1C,4.67
13,COc1ccccc1CNC(=O)CSc1ccc(-c2cccs2)nn1,3.8
14,COc1ccc(CNC(=O)CN(C)S(=O)(=O)c2ccc3[nH]c(-c4ccccc4)nc3c2)cc1,-3.17
15,CC(C)(C)c1ccc(C2CC(=O)NC3=C2C(=O)CCC3)cc1 (centres unmarked),6.82
16,Cc1cc(C)n(-c2cc(C(F)(F)F)nc(-c3ccccc3)n2)n1,-1.48
17,Cc1sc2ncn(CC(=O)N3CCCC3)c(=O)c2c1-c1ccc(Br)cc1,-5.3
18,CCOC(=O)C1CCN(c2nc(C)cnc2C)CC1,2.16
19,COC(=O)c1ccc(-c2ccco2)n1CC(=O)N1CCN(Cc2ccc3c(c2)OCO3)CC1,-0.495
20,Cc1cc(O)n2c(C)nnc2n1,0.0289
21,O=C(Nc1cc(-c2cccc(Cl)c2)no1)c1cc2c(s1)-c1ccccc1S(=O)(=O)C2,-2.45
22,COC(=O)c1cc2ccccc2[nH]1,-1.99

row,SMILES,% Inhibition @ 10 uM [%]
1,Cc1ccc(NC(=O)C23CC4CC(C2)CC(n2cnc(Br)n2)(C4)C3)cc1C,7.46
2,OC(COc1ccc(F)cc1)CN1CCN(Cc2ccc(Cl)cc2)CC1 (centres unmarked),-5.06
3,O=S(=O)(Nc1ccc(S(=O)(=O)N2CCCCC2)cc1)c1ccc(Br)s1,3.5
4,Cc1cccc(-n2nnc(C(=O)NC3CCCc4ccccc43)c2N)c1 (centres unmarked),8.15
5,O=C(Nc1ccon1)c1ccc(OC2CCCC2)cc1,-5.81
6,COc1ccc2c(c1)c(=O)oc1cc(OCc3ccc(F)cc3)ccc12,1.84
7,Cc1cc(NCc2ccc(F)cc2)n2cnnc2n1,-2.57
8,O=S(=O)(c1ccc(F)cc1)N(Cc1ccccc1)Cc1ccccc1,2.22
9,COc1ccc(Br)cc1CNCc1cccc(OC)c1OC,1.15
10,Cc1ccc(OCc2nc(-c3ccc(C(=O)N4CCC5(CC4)OCCO5)cc3)oc2C)cc1,3.47
11,CCc1ccc(CNC(=O)C2CCN(S(=O)(=O)N3CCC(C)CC3)CC2)cc1,-3.12
12,O=CNCC(=O)NC1CCCCCC1,3.66
13,Cc1ccc(OCC(=O)Nc2ccccc2C)cc1,6.37
14,Cc1cccc(N2C(=O)CC(N3CCN(c4cccc(Cl)c4)CC3)C2=O)c1 (centres unmarked),6.74
15,O=C(NCCNC1=NS(=O)(=O)c2ccccc21)c1ccc(S(=O)(=O)N2CCOCC2)cc1,-7
16,COc1ccc(Oc2nc3c(c(=O)n(Cc4ccccc4)c(=O)n3C)n2C)cc1,1.97
17,O=C(CCc1cn(Cc2ccccc2Cl)c2ccccc12)NCC1CCCO1 (centres unmarked),0.857
18,CCOC(=O)c1[nH]cnc1C(=O)N1CCOCC1,-1.37
19,O=C(O)COc1ccc(/C=C2/NC(=O)N(Cc3ccccc3F)C2=O)cc1,1.63
20,Clc1ccccc1CN1C2=NCCCN2c2ccccc21,-3.74
21,CCOc1ccc(C2c3c(oc4ccc(F)cc4c3=O)C(=O)N2c2nc(C)c(C(=O)OC)s2)cc1 (centres unmarked),-3.13
22,CCCC1CCC(c2ccc(-c3noc(-c4ccc(OC(F)F)cc4)n3)cc2)CC1 (centres unmarked),-6.07

row,SMILES,% Inhibition @ 10 uM [%]
1,CC(C)C[C@H](NC(=O)OCc1ccccc1)C(=O)N[C@H]1CCOC1(O)c1nc2ccccc2o1 (some centres unmarked),1.35
2,CC(C)Cc1ccc(S(=O)(=O)Nc2noc3ccccc23)cc1,-2.85
3,Cc1ccc(NC(=O)C2CCC(C)(C(=O)O)C2(C)C)cc1C (centres unmarked),-4.01
4,Cc1[nH]c2ccc(C(=O)NCc3cccnc3)cc2c1C,-2.65
5,COC(=O)c1c(NC(=O)c2cccc(Cn3nc(C)c(Cl)c3C)c2)sc2c1CCC2,0.413
6,Cc1ccc(C(=O)N2N=C(c3ccccc3)CC2c2ccccc2)cc1 (centres unmarked),4.97
7,CC(C)(C)n1cnc2cc(NC(=O)c3ccco3)ccc21,0.13
8,CCc1c(CN(CC)Cc2ccccc2)csc1C,0.951
9,CCC(=O)Nc1ccccc1C(=O)N1CCCC1,-7.9
10,Cc1nc2c(c(C)c1CCC(=O)NCCC(C)C)c(=O)n(C)c(=O)n2C,-6.91
11,CCCCOc1ccccc1C1NC(=O)NC(C)=C1C(=O)OCc1ccco1 (centres unmarked),-5.5
12,CCOc1ccc(CN2CCNC(=O)C2CC(=O)O)cc1 (centres unmarked),2.31
13,COc1ccc(-c2nc3c4cnn(-c5c(F)c(F)cc(F)c5F)c4ncn3n2)cc1,0.569
14,Cc1ccc(C)c(S(=O)(=O)c2nnn3c2nc(N)c2sccc23)c1,-6.51
15,Cc1ccccc1C(=O)Nc1ccc(S(=O)(=O)N2CCC(C)CC2)cc1,1.79
16,CN(CC(=O)c1ccc2cc[nH]c2c1)Cc1ccccc1,3.96
17,COc1cc(-c2cc(C(=O)O)c3c(-c4ccc(Cl)cc4)[nH]nc3n2)cc(OC)c1OC,-1.78
18,CC(C)(C)NC(=O)c1cccc2c1OC(C)(C)C2,-1.09
19,O=C(O)CCCC(=O)/N=C1\SC2CS(=O)(=O)CC2N1Cc1ccc(Cl)cc1 (centres unmarked),-2.92
20,CCN1CCC(NC(C)CCCC(C)(C)O)CC1 (centres unmarked),-1.81
21,CCC(C)NC(=O)c1cc(-c2ccc(C)o2)nc2ccccc12 (centres unmarked),1.1
